# Results taken from publication PMC6151265.
# Sequences of proteins named here, by UniProt entry; tags and fusion partners are left off.
# UniProt Q96T51: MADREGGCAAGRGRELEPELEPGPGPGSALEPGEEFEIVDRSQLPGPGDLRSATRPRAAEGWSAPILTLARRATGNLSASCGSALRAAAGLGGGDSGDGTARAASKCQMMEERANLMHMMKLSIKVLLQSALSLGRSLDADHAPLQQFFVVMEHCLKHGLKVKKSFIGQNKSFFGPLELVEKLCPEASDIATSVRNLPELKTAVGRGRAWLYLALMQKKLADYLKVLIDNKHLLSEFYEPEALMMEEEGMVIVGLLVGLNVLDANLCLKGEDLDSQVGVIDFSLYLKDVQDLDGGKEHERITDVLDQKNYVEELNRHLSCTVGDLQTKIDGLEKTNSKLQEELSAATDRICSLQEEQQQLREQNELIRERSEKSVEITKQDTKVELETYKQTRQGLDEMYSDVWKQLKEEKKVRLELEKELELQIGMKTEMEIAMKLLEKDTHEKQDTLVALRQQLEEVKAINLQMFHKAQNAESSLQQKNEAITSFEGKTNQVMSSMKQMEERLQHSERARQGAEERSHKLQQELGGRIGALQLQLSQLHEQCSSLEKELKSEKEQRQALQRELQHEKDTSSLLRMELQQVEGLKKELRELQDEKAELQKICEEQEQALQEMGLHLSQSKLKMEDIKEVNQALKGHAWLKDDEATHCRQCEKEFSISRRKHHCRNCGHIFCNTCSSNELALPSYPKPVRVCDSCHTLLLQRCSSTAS
# UniProt Q9Y496: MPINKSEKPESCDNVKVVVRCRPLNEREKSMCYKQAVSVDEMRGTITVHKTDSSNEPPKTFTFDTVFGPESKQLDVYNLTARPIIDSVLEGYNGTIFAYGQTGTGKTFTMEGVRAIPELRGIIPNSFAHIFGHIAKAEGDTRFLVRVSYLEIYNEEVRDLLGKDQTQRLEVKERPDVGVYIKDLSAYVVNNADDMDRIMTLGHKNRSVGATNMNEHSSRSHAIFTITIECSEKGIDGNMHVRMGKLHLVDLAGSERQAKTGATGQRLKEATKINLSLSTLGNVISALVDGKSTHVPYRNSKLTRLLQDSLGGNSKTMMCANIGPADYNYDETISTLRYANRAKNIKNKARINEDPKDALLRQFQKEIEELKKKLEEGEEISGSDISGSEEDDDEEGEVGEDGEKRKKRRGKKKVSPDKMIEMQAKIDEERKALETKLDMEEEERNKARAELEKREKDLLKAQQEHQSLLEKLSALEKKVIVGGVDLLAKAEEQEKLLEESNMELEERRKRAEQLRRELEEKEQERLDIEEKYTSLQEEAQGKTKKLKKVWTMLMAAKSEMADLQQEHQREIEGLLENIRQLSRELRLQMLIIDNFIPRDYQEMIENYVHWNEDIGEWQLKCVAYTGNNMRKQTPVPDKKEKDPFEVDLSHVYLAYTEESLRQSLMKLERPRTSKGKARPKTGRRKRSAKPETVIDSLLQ
# UniProt P28741: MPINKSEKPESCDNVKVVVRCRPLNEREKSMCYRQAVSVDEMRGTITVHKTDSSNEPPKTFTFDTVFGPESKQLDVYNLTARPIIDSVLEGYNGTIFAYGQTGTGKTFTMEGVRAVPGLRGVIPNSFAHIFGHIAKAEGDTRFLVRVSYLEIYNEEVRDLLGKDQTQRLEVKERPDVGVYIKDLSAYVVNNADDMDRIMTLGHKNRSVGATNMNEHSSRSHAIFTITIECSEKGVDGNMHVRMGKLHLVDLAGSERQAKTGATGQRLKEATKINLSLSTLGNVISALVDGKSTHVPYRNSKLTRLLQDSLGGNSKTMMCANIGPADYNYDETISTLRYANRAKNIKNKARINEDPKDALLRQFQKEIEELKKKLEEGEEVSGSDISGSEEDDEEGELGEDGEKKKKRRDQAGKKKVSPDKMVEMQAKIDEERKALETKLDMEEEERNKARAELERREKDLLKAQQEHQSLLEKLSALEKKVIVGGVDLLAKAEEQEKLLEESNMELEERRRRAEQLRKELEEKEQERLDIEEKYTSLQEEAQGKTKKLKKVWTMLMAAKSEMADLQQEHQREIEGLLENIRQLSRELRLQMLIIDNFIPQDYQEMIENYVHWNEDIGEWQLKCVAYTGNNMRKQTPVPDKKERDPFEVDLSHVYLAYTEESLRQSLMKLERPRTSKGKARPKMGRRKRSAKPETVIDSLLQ
# These are yes or no findings as the source states them, for the method shown. In cells and extracts the contact can be indirect. Some entries that bind do so weakly or less than the wild type. For some of these results: Sequences can lack the tags named with a protein.
# Tests used:
# [1] = molecular target: T1, Rab4 (endogenous, melanocytes) (mouse (endogenous in melan-Ink melanocytes)) (UniProt P56371); assay: co-IP; endogenous Rab4 from melan-Ink melanocyte lysate, anti-Rab4 antibody and Protein G–Sepharose 4B beads overnight at 4°C; immunoblotting
# T1 sequence: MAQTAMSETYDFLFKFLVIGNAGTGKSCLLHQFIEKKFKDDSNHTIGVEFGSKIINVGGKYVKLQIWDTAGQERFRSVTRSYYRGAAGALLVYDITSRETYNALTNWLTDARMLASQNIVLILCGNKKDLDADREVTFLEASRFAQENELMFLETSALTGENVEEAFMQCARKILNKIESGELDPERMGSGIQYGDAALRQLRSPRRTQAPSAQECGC
# GFP–rabenosyn-5 = molecular target: T2, GFP–rabenosyn-5 (UniProt Q9H1K0); assay: co-IP; GFP-tagged bait expressed in HeLa cells, lysate (20 mM HEPES pH7.4, 100 mM KCl, 10 mM MgCl2, 5 mM EDTA, 1% Triton X-100, 100 µM GTPγS) on GFP-Trap_A beads 4–5 h at 4°C; immunoblotting of endogenous partners
# T2 sequence: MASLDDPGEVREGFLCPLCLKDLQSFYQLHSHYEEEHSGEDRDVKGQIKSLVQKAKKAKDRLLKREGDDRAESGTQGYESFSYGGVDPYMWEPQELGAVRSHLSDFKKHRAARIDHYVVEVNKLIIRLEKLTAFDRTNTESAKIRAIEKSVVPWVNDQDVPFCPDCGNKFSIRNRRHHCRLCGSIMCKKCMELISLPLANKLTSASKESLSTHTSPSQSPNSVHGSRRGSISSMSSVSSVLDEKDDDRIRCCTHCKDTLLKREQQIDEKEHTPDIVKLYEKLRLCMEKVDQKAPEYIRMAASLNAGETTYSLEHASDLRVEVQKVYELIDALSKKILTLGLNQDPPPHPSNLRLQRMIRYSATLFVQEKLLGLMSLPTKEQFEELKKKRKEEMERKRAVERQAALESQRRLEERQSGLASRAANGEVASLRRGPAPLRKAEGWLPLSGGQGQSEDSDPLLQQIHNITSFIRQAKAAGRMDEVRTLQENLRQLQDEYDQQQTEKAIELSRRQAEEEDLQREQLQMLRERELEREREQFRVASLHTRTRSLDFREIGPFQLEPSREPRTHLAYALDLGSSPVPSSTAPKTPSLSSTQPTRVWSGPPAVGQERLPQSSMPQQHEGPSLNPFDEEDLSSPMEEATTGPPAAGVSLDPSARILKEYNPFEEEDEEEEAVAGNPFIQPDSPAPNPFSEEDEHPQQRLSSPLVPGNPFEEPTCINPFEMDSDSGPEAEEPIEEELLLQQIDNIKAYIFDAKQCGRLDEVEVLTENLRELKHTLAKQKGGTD
# GFP–Rabip4′ = GFP–Rabip4′ (UniProt Q96T51); assay: as above
# Myc–KIF3A = Myc–KIF3A (UniProt Q9Y496); assay: co-IP; Myc-tagged bait expressed in HeLa cells, anti-Myc antibody and Protein G–Sepharose 4B beads overnight at 4°C; immunoblotting of endogenous partners
substance,measurement,setting,value
"KIF3A (endogenous, melanocytes) (from UniProt P28741 1-701)",binding,[1],binds
"KIF3A (endogenous, HeLa) (from UniProt Q9Y496 1-699)",binding,GFP–rabenosyn-5,binds
same,binding,GFP–Rabip4′,no binding
"Rabip4/4′ (endogenous, HeLa) (from UniProt Q96T51 1-708)",binding,Myc–KIF3A,no binding
